This is an account of results in publication PMC4336329 (PLoS ONE, 2015).

In all, about 310,000 compounds went through this assay and about 14,000 (4.5%) showed an effect of 50% or more. The effect is printed as a negative number. The list shows a part of the results.
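Note: peak tail current of the secondary pulse compared with the same well before compound.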

human ether-à-go-go-related gene (hERG) potassium channel, sequence (Q12809 whole entry, looked up): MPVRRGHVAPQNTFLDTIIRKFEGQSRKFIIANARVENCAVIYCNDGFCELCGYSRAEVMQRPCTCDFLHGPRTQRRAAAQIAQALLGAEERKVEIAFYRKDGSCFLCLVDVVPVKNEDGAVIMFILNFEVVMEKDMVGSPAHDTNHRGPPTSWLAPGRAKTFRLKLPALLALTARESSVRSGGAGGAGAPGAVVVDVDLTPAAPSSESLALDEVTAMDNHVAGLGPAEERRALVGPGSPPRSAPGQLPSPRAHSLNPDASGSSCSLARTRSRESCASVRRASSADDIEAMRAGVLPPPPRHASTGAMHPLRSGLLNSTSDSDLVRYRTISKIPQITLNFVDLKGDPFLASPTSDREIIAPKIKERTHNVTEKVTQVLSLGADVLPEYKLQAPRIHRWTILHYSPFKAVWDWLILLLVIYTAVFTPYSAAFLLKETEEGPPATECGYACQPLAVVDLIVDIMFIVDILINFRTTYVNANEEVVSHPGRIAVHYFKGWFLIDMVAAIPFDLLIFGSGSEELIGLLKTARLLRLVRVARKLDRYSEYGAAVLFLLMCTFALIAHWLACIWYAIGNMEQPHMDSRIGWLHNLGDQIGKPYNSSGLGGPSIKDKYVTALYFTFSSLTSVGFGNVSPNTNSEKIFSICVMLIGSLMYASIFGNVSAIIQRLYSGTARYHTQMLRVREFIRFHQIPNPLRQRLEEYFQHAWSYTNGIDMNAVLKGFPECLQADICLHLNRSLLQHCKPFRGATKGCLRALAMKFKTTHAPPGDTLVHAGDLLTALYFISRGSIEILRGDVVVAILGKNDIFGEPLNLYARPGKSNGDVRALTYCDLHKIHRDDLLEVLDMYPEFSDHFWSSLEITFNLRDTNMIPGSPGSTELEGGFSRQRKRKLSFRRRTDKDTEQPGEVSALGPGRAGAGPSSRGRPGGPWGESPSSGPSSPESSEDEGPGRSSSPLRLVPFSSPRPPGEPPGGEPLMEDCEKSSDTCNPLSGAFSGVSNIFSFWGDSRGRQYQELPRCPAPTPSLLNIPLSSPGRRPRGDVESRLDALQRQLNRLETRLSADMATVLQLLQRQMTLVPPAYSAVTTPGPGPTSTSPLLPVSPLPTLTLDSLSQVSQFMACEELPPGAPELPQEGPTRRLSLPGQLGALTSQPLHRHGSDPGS

The test addresses human ether-à-go-go-related gene (hERG) potassium channel (human, UniProt Q12809). As to the kind of experiment: primary screen, population patch clamp on CHO cells stably expressing hERG.
`CCn1c(C)nc2cc(C(=O)N3N=C(CCOC)CC3(O)C(F)(F)F)ccc21` (centres unmarked): the “hERG current change (%, negative = inhibition) at 10uM” value is listed as -7.02%.
Take `Cc1cccc(CS(=O)(=O)Cc2ccc(C(=O)NCCCN3CCOCC3)o2)c1`: the “hERG current change (%, negative = inhibition) at 10uM” value is recorded as -12.6%.
As for `O=C(N[C@@H]1C[C@H]2CC[C@@H]1C2)c1ccco1`, the figure is 4.88%; as for `Cc1nn(-c2ccccc2)c(N2CCCC2)c1/C=N/NC(=S)Nc1ccccc1C(F)(F)F`, 7.24%; as for `CCCCn1c(CN(Cc2ccccc2)Cc2ccccc2)nc2c1c(=O)n(C)c(=O)n2C`, -4.74%.
The same measure for `NC(=O)CC(NC(=O)Cc1cccc2ccccc12)c1ccc(NC2CCC2)c([N+](=O)[O-])c1` (centres unmarked): -1.82%; for `CC(C)(C)c1ccc(C(=O)NCC(=O)N/N=C/c2cccnc2)cc1`: 0.348%; for `C=C[C@]1(C)C[C@@H](OC(=O)CSCCN(CC)CC)[C@]2(C)C(C)CC[C@]3(CCC(=O)[C@H]32)[C@@H](C)[C@@H]1O.O=C(O)/C=C/C(=O)O` (some centres unmarked): -68.3%.
As for `CCN(Cc1ccncc1)Cc1cn(C)nc1-c1ccc(Oc2ccccc2)cc1`, the figure is -35.8%; as for `CCOC(=O)C1(Cc2cccc(OC)c2)CCN(Cc2ccc3c(c2)OCCO3)CC1`, -38%.
Regarding `CC1(C)Cc2c(cnn2-c2ccccc2)C(NC(=O)CCc2ccncc2)C1` (centres unmarked), the “hERG current change (%, negative = inhibition) at 10uM” value is recorded as -68.8%.
`COCCNc1nc(C)cc(-c2cc(-c3ccc(Cl)cc3)on2)n1`: the “hERG current change (%, negative = inhibition) at 10uM” value turned out to be 6.74%.
The same measure for `Cc1ccc(NC(=O)CN(C)CC(=O)NC2CCCc3ccccc32)cc1` (centres unmarked): -21.3%.
The same measure for `COc1ccccc1C(=O)Nc1nnc(-c2ccco2)s1`: 9.73%.
`CCOC(=O)N1CCN(C(=O)CSCC(=O)Nc2nc(-c3ccccc3)cs2)CC1`: the “hERG current change (%, negative = inhibition) at 10uM” value is -50.5%.
For the compound `Cc1cccc([C@@H]2[C@@H]3C(=O)N(Cc4ccccc4)C(=O)[C@@H]3[C@]3(C)C(=O)N(c4cccc(F)c4)C(=O)N23)c1`, the “hERG current change (%, negative = inhibition) at 10uM” value worked out at 2.17%.
As for `COc1ccc(NS(=O)(=O)c2cccc(C(=O)N/N=C(\C)c3ccc(-n4ccnc4)cc3)c2)cc1`, the “hERG current change (%, negative = inhibition) at 10uM” value worked out at 19.3%.
The same measure for `CCOc1cccc(CNCCNC(=O)c2nonc2N)c1.Cl`: -7.85%.
As for `O=C(CSc1nnc(Cc2ccccc2)n1Cc1ccccc1)NCc1ccco1`, the figure is -36.6%; as for `Fc1cc(F)nc(NCc2ccccc2)n1`, 1.59%; as for `O=C(Nc1ccccc1C(=O)N1CCCCC1)c1cc(F)c(F)cc1Cl`, 1.47%.
Regarding `C/C=C/C1=CC(=O)C[C@H](c2ccc(F)cc2)C1`, the “hERG current change (%, negative = inhibition) at 10uM” value is on record as -34.3%.
The same measure for `CCOC(=O)c1sc2nccc(N(C)C)c2c1N=CN(C)C`: -18.5%; for `O=C(NC1CCCC1)C1CCCN(C(=O)Nc2ccccc2)C1` (centres unmarked): 4.42%.
Take `COc1ccc(N(C(=O)Cn2nnc3ccccc32)C(C(=O)NCc2ccco2)c2ccncc2)cc1` (centres unmarked): the “hERG current change (%, negative = inhibition) at 10uM” value was found to be 11.3%.
As for `CCCn1c(SCC(=O)Nc2ccccc2N2CCOCC2)nc2c1c(=O)n(C)c(=O)n2C`, the figure is -15.3%; as for `Cc1cc(=O)oc2cc(OCC(=O)Nc3cccc(S(=O)(=O)N(C)C)c3)ccc12`, -10.8%; as for `CCOC(=O)Cc1csc(NC(=O)/C=C\c2ccccc2)n1`, -23.1%.
The same measure for `CN(CC(=O)Nc1ccccc1Cl)C1CCS(=O)(=O)C1` (centres unmarked): -4.9%.
The same measure for `CN1C(=O)/C(=C/c2ccc(O)c([N+](=O)[O-])c2)NC1=S`: 27.4%; for `COc1c(F)c(F)c(C(=O)Nc2ccc(NC(=O)Cc3ccccc3)cc2)c(F)c1F`: 24.4%; for `CP(=O)(O)CN1CCCCC1`: 10.6%.
For the compound `Cl.FC(F)(F)c1cccc(C2NCc3ccccc3-n3cccc32)c1` (centres unmarked), the “hERG current change (%, negative = inhibition) at 10uM” value is recorded as -3.13%.
The same measure for `COc1ccc(OCC(=O)NNC(=O)c2ccccc2OCc2c(C)noc2C)cc1`: -9.19%.
The same measure for `COc1ccccc1C/C(N)=N/OC(=O)c1cccc([N+](=O)[O-])c1C`: -9.76%; for `COc1ccc(N2C(=O)[C@@H]3[C@H](C2=O)[C@H](C(=O)c2ccc(OC(C)=O)cc2)N2N=CC=C[C@@H]32)cc1`: 0.585%.
The same measure for `CCOC(=O)c1[nH]c2ccc(F)cc2c1NC(=O)C(C)N1CCc2cc(OC)c(OC)cc2C1` (centres unmarked): -10.6%; for `CCOc1ccc(N(CC(=O)NCCSCc2ccco2)S(=O)(=O)c2ccc(F)cc2)cc1`: 2.3%; for `CC(C)OC(=O)c1cccc2c1C(=O)c1ccccc1-2`: 5.86%.
For the compound `COC(=O)C1(C(F)(F)F)C2C=CC(C2)N1S(=O)(=O)c1ccc(C)cc1` (centres unmarked), the “hERG current change (%, negative = inhibition) at 10uM” value was determined as 2.19%.
As to `Cn1c(=O)c2cn3c(c2n(C)c1=O)C(c1ccccc1)CC(c1ccccc1)=N3` (centres unmarked), the “hERG current change (%, negative = inhibition) at 10uM” value was -18.4%.
As for `CN(CC(=O)NC1CCCCC1)S(=O)(=O)c1cccc2nsnc12`, the figure is -0.675%.
As for `CCn1c(Cc2ccc(OC)cc2)nc2ccccc21`, the figure is 6.11%.
As for `COCCN(C(=O)c1ccc2ccccc2c1)c1c(N)n(Cc2ccccc2)c(=O)[nH]c1=O`, the figure is 16.9%.
As for `Cc1ccc(S(=O)(=O)NC(=NC2CCCCC2)c2ccc(Cl)cc2)cc1`, the “hERG current change (%, negative = inhibition) at 10uM” value was 7.95%.
The same measure for `COc1ccc(C(C)=O)cc1COc1ccc(-n2cnnn2)cc1`: -41.3%; for `O=C(c1cccnc1)N1CCN(c2ccccc2Cl)CC1`: -18.5%.
The same measure for `CCCCOc1ncnc2c1[nH]c1ccc(C)cc12`: 3.04%.
As for `O=C(c1ccco1)N1CCN(c2cc(N3CCOCC3)c(F)cc2[N+](=O)[O-])CC1`, the figure is -49.6%; as for `NC(=NC(=O)c1ccc(OCC(F)(F)F)nc1)c1ccccc1`, 4%; as for `O=C(NC1CCCCCC1)c1c(F)c(F)c(F)c(F)c1F`, -9.7%.
For the compound `COc1ccc2c(c1O)C13CCN(C)C(C2)C1CCC(=O)C3` (centres unmarked), the “hERG current change (%, negative = inhibition) at 10uM” value is -5.17%.
As for `O=C(NNC(=O)C1CCN(c2ncccn2)CC1)c1ccc(Cl)cc1`, the figure is 0.113%.
